This note sets out measurements from US20160137740A1 (AstraZeneca / MedImmune, published 2016).

Test [1] addresses T1, Human OX40 (human, UniProt P43489 29-277).
T1 sequence: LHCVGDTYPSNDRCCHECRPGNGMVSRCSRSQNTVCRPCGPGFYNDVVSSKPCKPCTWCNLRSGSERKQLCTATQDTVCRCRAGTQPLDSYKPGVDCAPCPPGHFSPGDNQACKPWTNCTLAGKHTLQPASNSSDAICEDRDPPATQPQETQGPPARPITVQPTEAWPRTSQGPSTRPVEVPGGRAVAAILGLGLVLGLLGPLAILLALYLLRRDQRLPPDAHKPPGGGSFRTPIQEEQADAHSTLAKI
As to the kind of experiment: cell-based or functional assay.

Test [2] has as its target T2, Human TNFRSF1β (TNFR2) expressed on HEK293 cells (human, UniProt P20333 23-461).
T2 construct: whole, on cells; also called TNFRSF1B; CD120b
T2 sequence (looked up): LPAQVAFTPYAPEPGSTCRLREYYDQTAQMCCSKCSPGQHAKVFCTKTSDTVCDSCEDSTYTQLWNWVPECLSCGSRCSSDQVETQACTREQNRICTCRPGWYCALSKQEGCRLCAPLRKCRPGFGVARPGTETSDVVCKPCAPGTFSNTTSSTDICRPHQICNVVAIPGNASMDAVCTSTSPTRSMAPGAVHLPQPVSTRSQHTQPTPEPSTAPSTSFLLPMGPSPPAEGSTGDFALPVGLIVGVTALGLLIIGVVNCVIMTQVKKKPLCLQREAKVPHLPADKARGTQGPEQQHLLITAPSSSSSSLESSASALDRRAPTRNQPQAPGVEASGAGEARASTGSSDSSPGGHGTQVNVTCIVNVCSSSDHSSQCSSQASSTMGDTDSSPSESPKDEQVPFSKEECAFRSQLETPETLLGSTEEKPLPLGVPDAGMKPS
As to the kind of experiment: flow cytometry on transfected HEK293 cells, 1 µg/mL. The text has this: (§1) cDNA constructs capable of directing the expression of individual TNFRSF members, when transfected into mammalian cells, were obtained from Origene Technologies, Rockville, Md. These cDNA constructs were amplified and purified by the Protein Sciences group at MedImmune in Gaithersburg, Md. for use in transient transfections. […] Forty-eight hours post transfection, cells were removed from tissue culture plates by trypsinization. […] Cells were then suspended in cold FACS buffer (PBS+2% FBS) and plated into 96 well non-tissue culture-treated plates for binding studies with TNFRSF member-specific mAbs (Table 3-3) and OX40mAb24.
(§2) For binding of antibodies or OX40mAb24, HEK cells were pelleted, FACS buffer removed, and cells suspended in FACS buffer containing 2 μg/mL propidium iodide (PI) and either a fluorochrome-labeled mAb, specific for the transfected TNFRSF member, at a concentration recommended by the manufacturer or with OX40mAb24 at a concentration of 1 μg/mL. For binding controls, cells were separately incubated with fluorochrome-labeled isotype control antibodies. Cells were incubated with antibodies for 1 hour at 4° C. in the dark. Thereafter, cells incubated with fluorochrome-labeled monoclonal antibodies were washed in cold FACS buffer and then binding events collected and analyzed by flow cytometry using an LSRII flow cytometer (BD Biosciences, San Jose, Calif.) and FlowJo software, as described in Section 3.2.3. Cells incubated with OX40mAb24 were washed in ice cold FACS buffer and then suspended 25 μg/mL of Alexa Fluor® 647 goat antihuman IgG (H+L) secondary antibody and incubated for a further 30 minutes at 4° C. in the dark. For a secondary antibody binding control cells were incubated in the absence of OX40mAb24, but in the presence of fluorochrome-labeled secondary antibody alone. Thereafter, cells were washed and suspended in cold FACS buffer for analysis on an LSRII flow cytometer.

In test [3] the target is T3, Human TNFRSF18 (GITR) expressed on HEK293 cells (human, UniProt Q9Y5U5 26-241).
T3 chain: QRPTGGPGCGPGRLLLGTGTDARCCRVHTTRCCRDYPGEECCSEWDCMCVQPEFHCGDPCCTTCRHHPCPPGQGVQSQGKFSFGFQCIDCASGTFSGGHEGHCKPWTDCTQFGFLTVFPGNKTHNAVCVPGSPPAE
The description is as above.
Description: as §1, §2

The target in test [4] is T4, Human TNFRSF16 (NGFR) expressed on HEK293 cells (human, UniProt P08138 29-427).
T4 construct: whole, on cells; also called NGF receptor
T4 sequence (looked up): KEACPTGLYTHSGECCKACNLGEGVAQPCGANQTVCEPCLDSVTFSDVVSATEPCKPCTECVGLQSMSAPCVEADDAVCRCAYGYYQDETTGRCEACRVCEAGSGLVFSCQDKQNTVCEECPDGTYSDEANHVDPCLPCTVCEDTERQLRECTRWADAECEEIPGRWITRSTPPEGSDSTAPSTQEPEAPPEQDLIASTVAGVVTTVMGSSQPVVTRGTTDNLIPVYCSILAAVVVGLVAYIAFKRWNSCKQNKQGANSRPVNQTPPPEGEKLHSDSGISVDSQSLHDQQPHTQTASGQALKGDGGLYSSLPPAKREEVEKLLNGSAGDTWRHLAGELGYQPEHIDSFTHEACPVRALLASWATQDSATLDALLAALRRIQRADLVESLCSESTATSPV
The test is described as above.
Description: as §1, §2

Test [5] concerns the target Human TNFRSF3 (LTβR) expressed on HEK293 cells (human, UniProt P36941 31-435). The description is as above.
Description: as §1, §2

Test [6] addresses cyno/rhesus OX40 expressed on Jurkat NFκB-luciferase reporter clone B2 (cynomolgus/rhesus monkey). As to the kind of experiment: cell-based or functional assay.
Test [7] addresses T1, Human OX40. As to the kind of experiment: flow cytometry on OX40-overexpressing Jurkat cells, 1 µg/mL.

UniProt P36941, sequence (P36941 31-227): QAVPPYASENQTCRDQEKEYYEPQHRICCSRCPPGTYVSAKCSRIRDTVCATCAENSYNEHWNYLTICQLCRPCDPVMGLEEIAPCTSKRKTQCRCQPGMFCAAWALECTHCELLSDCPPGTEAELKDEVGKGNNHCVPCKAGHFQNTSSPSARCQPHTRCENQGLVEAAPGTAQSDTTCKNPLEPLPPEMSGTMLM

B1: OX40mAb24 (antibody, human IgG1, kappa)
heavy: QVQLQESGPGLVKPSQTLSLTCAVYGGSFSSGYWNWIRKHPGKGLEYIGYISYNGITYHNPSLKSRITINRDTSKNQYSLQLNSVTPEDTAVYYCARYKYDYDGGHAMDYWGQGTLVTVSSASTKGPSVFPLAPSSKSTSGGTAALGCLVKDYFPEPVTVSWNSGALTSGVHTFPAVLQSSGLYSLSSVVTVPSSSLGTQTYICNVNHKPSNTKVDKRV[skipping human IgG1 Fc]
light: DIQMTQSPSSLSASVGDRVTITCRASQDISNYLNWYQQKPGKAPKLLIYYTSKLHSGVPSRFSGSGSGTDYTLTISSLQPEDFATYYCQQGSALPWTFGQGTKVEIKRTVAAPSVFIFPPSDEQLKSGTASVVCLLNNFYPREAKVQWKVDNALQSGNSQESVTEQDSKDSTYSLSSTLTLSKADYEKHKVYACEVTHQGLSSPVTKSFNRGEC
notes: Humanized from 9B12; human IgG1 kappa; also called humanized anti-human OX40 IgG1κ monoclonal antibody
As for B1, in the test with Human OX40 [1], the “EC50, NFκB-luciferase 2-cell assay, exp 1, Raji” value amounted to 1.14 nM; the “EC50, NFκB-luciferase 2-cell assay, exp 2, CD32A-expressing HEK” value was found to be 0.437 nM; the “EC50, NFκB-luciferase 2-cell assay, exp 3, CD32A-expressing HEK” value was determined as 0.322 nM; the “EC50, NFκB-luciferase 2-cell assay, exp 4, Raji” value came to 1.04 nM. Moreover, in the test with Human OX40 [1], the “EC50, NFκB-luciferase 2-cell assay, exp 5, CD32B-expressing HEK” value was 0.27 nM; the “EC50, NFκB-luciferase 2-cell assay, exp 6, Raji” value is 0.796 nM; the “EC50, NFκB-luciferase 2-cell assay, exp 7, CD32B-expressing HEK” value amounted to 0.899 nM; the “EC50, NFκB-luciferase 2-cell assay, exp 8, CD32B-expressing HEK” value came to 0.671 nM. In addition, in the test with Human OX40 [1], the “EC50, NFκB-luciferase 2-cell assay, exp 9, Raji” value came out at 1.32 nM; the “EC50, NFκB-luciferase 2-cell assay, exp 10, Raji” value came to 1.26 nM; the “EC50, NFκB-luciferase 2-cell assay, exp 11, CD32B-expressing HEK” value turned out to be 0.7 nM; the “EC50, NFκB-luciferase 2-cell assay, exp 12, CD45+ cells, NSCLC” value was 0.0816 nM. Further, in the test with Human OX40 [1], the “EC50, NFκB-luciferase 2-cell assay, exp 13, CD45+ cells, RCC” value was 0.337 nM; the “EC50, NFκB-luciferase 2-cell assay, exp 14, CD45+ cells, NSCLC” value came to 0.772 nM; the “EC50, NFκB-luciferase 2-cell assay, exp 15, CD45+ cells, RCC” value amounted to 1.41 nM; the “EC50, NFκB-luciferase 2-cell assay, exp 16, CD32A-expressing HEK” value is 0.553 nM. Moreover, the “ratio of MFI to secondary antibody alone” value in test [2] was determined as 1 fold. Besides, in test [3], the “ratio of MFI to secondary antibody alone” value stood at 1.1 fold. The “ratio of MFI to secondary antibody alone” value in test [4] turned out to be 2.2 fold. For the same molecule, in test [5], the “ratio of MFI to secondary antibody alone” value came to 1 fold. In addition, the “EC50, NFκB-luciferase 2-cell assay, rhesus RBC-lysed whole blood + cyno/rhesus OX40 Jurkat clone B2” value in test [6] amounted to 0.55 nM. Besides, the “ratio of MFI to secondary antibody alone” value in the test with Human OX40 [7] is 48 fold.
